# Data reported in the supplement of paper PMC8728848.
# This is one part of the list.
# B1: SP8524D-bot-399-27-399 (Bacteroides ovatus) (protein)
# chain: DAKYDTLDTHAYIEEALSSTSQKVTVQATGESFTTLNVHLSNLSSTDNHYKLVTDQSVLDTYNHINGTGYIMLPKDYYTLPETITVKAGQYAADALSIALKAFSQEMMKSGESYALPVKLVLQDGSISPMENTGTFVILAESIIEFSAPMFVGAPSLKANKFTESPETYSQYTIEVRFQVANTADRDRAVFKNGGDDANFILLRFEDPQSDNENYKAHSLVQIVGRNRLYLNPSNSFKPNEWQHLALVCDGSNYRLYINGVDSGVLSIPTGATTFSDVNWFCLGDDSYSRWGNCKILMSEARIWSVVRSASQIQNNMTQVSPKSVGLEAYWRFNEGQGNVFEDATGKGHTLTTSATPTWIDGILSTDKSTEWK
# Legend:
# Assay in all cases: glycan array binding signal (z-score within array); higher = stronger binding
# Conditions in all cases: glycan notation: IUPAC condensed, linker removed
# [1] = molecular target: Fuc(a1-2)Gal6S(b1-3)GlcNAc6S
# Summary of the method: (§1)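 Arrays were curated from the Consortium for Functional Glycomics database, 3228 in total, and kept only where the protein sequence was available. Binding is expressed as a within-array Z-score. This score was averaged across arrays of the same protein sequence at different concentrations or buffers and across linkers, and negative values can be read as non-binding.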
# Fuc(a1-2)Gal6S(b1-4)Glc = molecular target: Fuc(a1-2)Gal6S(b1-4)Glc
# Summary of the method: as §1
# [2] = molecular target: Fuc(a1-2)Gal6S(b1-4)Glc6S
# Summary of the method: as §1
# Fuc(a1-2)[Gal(a1-3)]Gal = molecular target: Fuc(a1-2)[Gal(a1-3)]Gal
# Summary of the method: as §1
# [3] = molecular target: Fuc(a1-2)[Gal(a1-3)]Gal(b1-3)GalNAc
# Summary of the method: as §1
# [4] = molecular target: Fuc(a1-2)[Gal(a1-3)]Gal(b1-3)GalNAc(b1-3)Gal(a1-4)Gal(b1-4)Glc
# Summary of the method: as §1
# [5] = molecular target: Fuc(a1-2)[Gal(a1-3)]Gal(b1-3)GlcNAc
# Summary of the method: as §1
# [6] = molecular target: Fuc(a1-2)[Gal(a1-3)]Gal(b1-3)GlcNAc(b1-2)Man(a1-3)[Fuc(a1-2)[Gal(a1-3)]Gal(b1-3)GlcNAc(b1-2)Man(a1-6)]Man(b1-4)GlcNAc(b1-4)GlcNAc
# Summary of the method: as §1
# [7] = molecular target: Fuc(a1-2)[Gal(a1-3)]Gal(b1-3)GlcNAc(b1-2)Man(a1-3)[Fuc(a1-2)[Gal(a1-3)]Gal(b1-3)GlcNAc(b1-2)Man(a1-6)]Man(b1-4)GlcNAc(b1-4)[Fuc(a1-6)]GlcNAc
# Summary of the method: as §1
# [8] = molecular target: Fuc(a1-2)[Gal(a1-3)]Gal(b1-3)GlcNAc(b1-3)GalNAc
# Summary of the method: as §1
# [9] = molecular target: Fuc(a1-2)[Gal(a1-3)]Gal(b1-3)GlcNAc(b1-6)GalNAc
# Summary of the method: as §1
# [10] = molecular target: Fuc(a1-2)[Gal(a1-3)]Gal(b1-4)Glc
# Summary of the method: as §1
# [11] = molecular target: Fuc(a1-2)[Gal(a1-3)]Gal(b1-4)GlcNAc
# Summary of the method: as §1
# [12] = molecular target: Fuc(a1-2)[Gal(a1-3)]Gal(b1-4)GlcNAc(b1-2)Man
# Summary of the method: as §1
# [13] = molecular target: Fuc(a1-2)[Gal(a1-3)]Gal(b1-4)GlcNAc(b1-2)Man(a1-3)[Fuc(a1-2)[Gal(a1-3)]Gal(b1-4)GlcNAc(b1-2)Man(a1-6)]Man(b1-4)GlcNAc(b1-4)GlcNAc
# Summary of the method: as §1
# [14] = molecular target: Fuc(a1-2)[Gal(a1-3)]Gal(b1-4)GlcNAc(b1-2)Man(a1-3)[Fuc(a1-2)[Gal(a1-3)]Gal(b1-4)GlcNAc(b1-2)Man(a1-6)]Man(b1-4)GlcNAc(b1-4)[Fuc(a1-6)]GlcNAc
# Summary of the method: as §1
# [15] = molecular target: Fuc(a1-2)[Gal(a1-3)]Gal(b1-4)GlcNAc(b1-3)GalNAc
# Summary of the method: as §1
# [16] = molecular target: Fuc(a1-2)[Gal(a1-3)]Gal(b1-4)GlcNAc(b1-3)[Fuc(a1-2)[Gal(a1-3)]Gal(b1-4)GlcNAc(b1-6)]GalNAc
# Summary of the method: as §1
# [17] = molecular target: Fuc(a1-2)[Gal(a1-3)]Gal(b1-4)GlcNAc(b1-6)GalNAc
# Summary of the method: as §1
# [18] = molecular target: Fuc(a1-2)[Gal(a1-3)]Gal(b1-4)[Fuc(a1-3)]Glc
# Summary of the method: as §1
# [19] = molecular target: Fuc(a1-2)[Gal(a1-3)]Gal(b1-4)[Fuc(a1-3)]GlcNAc
# Summary of the method: as §1
# [20] = molecular target: Fuc(a1-2)[Gal(a1-3)]Gal(b1-4)[Fuc(a1-3)]GlcNAc(b1-3)GalNAc
# Summary of the method: as §1
# [21] = molecular target: Fuc(a1-2)[Gal(a1-4)]Gal(b1-4)GlcNAc
# Summary of the method: as §1
# [22] = molecular target: Fuc(a1-2)[GalNAc(a1-3)]Gal
# Summary of the method: as §1
# [23] = molecular target: Fuc(a1-2)[GalNAc(a1-3)]Gal(b1-3)GalNAc(a1-3)[Fuc(a1-2)]Gal(b1-4)GlcNAc
# Summary of the method: as §1
# [24] = molecular target: Fuc(a1-2)[GalNAc(a1-3)]Gal(b1-3)GalNAc(b1-3)Gal(a1-4)Gal(b1-4)Glc
# Summary of the method: as §1
# [25] = molecular target: Fuc(a1-2)[GalNAc(a1-3)]Gal(b1-3)GlcNAc
# Summary of the method: as §1
# [26] = molecular target: Fuc(a1-2)[GalNAc(a1-3)]Gal(b1-3)GlcNAc(b1-2)Man(a1-3)[Fuc(a1-2)[GalNAc(a1-3)]Gal(b1-3)GlcNAc(b1-2)Man(a1-6)]Man(b1-4)GlcNAc(b1-4)GlcNAc
# Summary of the method: as §1
# [27] = molecular target: Fuc(a1-2)[GalNAc(a1-3)]Gal(b1-3)GlcNAc(b1-2)Man(a1-3)[Fuc(a1-2)[GalNAc(a1-3)]Gal(b1-3)GlcNAc(b1-2)Man(a1-6)]Man(b1-4)GlcNAc(b1-4)[Fuc(a1-6)]GlcNAc
# Summary of the method: as §1
# [28] = molecular target: Fuc(a1-2)[GalNAc(a1-3)]Gal(b1-3)GlcNAc(b1-3)GalNAc
# Summary of the method: as §1
# [29] = molecular target: Fuc(a1-2)[GalNAc(a1-3)]Gal(b1-3)GlcNAc(b1-6)GalNAc
# Summary of the method: as §1
# [30] = molecular target: Fuc(a1-2)[GalNAc(a1-3)]Gal(b1-4)Glc
# Summary of the method: as §1
# [31] = molecular target: Fuc(a1-2)[GalNAc(a1-3)]Gal(b1-4)GlcNAc
# Summary of the method: as §1
# [32] = molecular target: Fuc(a1-2)[GalNAc(a1-3)]Gal(b1-4)GlcNAc(b1-2)Man
# Summary of the method: as §1
# [33] = molecular target: Fuc(a1-2)[GalNAc(a1-3)]Gal(b1-4)GlcNAc(b1-2)Man(a1-3)[Fuc(a1-2)[GalNAc(a1-3)]Gal(b1-4)GlcNAc(b1-2)Man(a1-6)]Man(b1-4)GlcNAc(b1-4)GlcNAc
# Summary of the method: as §1
# [34] = molecular target: Fuc(a1-2)[GalNAc(a1-3)]Gal(b1-4)GlcNAc(b1-2)Man(a1-3)[Fuc(a1-2)[GalNAc(a1-3)]Gal(b1-4)GlcNAc(b1-2)Man(a1-6)]Man(b1-4)GlcNAc(b1-4)[Fuc(a1-6)]GlcNAc
# Summary of the method: as §1
# [35] = molecular target: Fuc(a1-2)[GalNAc(a1-3)]Gal(b1-4)GlcNAc(b1-3)Gal(b1-4)GlcNAc
# Summary of the method: as §1
# [36] = molecular target: Fuc(a1-2)[GalNAc(a1-3)]Gal(b1-4)GlcNAc(b1-3)Gal(b1-4)GlcNAc(b1-3)Gal(b1-4)GlcNAc
# Summary of the method: as §1
# [37] = molecular target: Fuc(a1-2)[GalNAc(a1-3)]Gal(b1-4)GlcNAc(b1-3)GalNAc
# Summary of the method: as §1
# [38] = molecular target: Fuc(a1-2)[GalNAc(a1-3)]Gal(b1-4)GlcNAc(b1-3)[Fuc(a1-2)[GalNAc(a1-3)]Gal(b1-4)GlcNAc(b1-6)]GalNAc
# Summary of the method: as §1
# [39] = molecular target: Fuc(a1-2)[GalNAc(a1-3)]Gal(b1-4)GlcNAc(b1-6)GalNAc
# Summary of the method: as §1
# [40] = molecular target: Fuc(a1-2)[GalNAc(a1-3)]Gal(b1-4)[Fuc(a1-3)]GlcNAc
# Summary of the method: as §1
# [41] = molecular target: Fuc(a1-2)[GalNAc(a1-3)]Gal(b1-4)[Fuc(a1-3)]GlcNAc(b1-3)GalNAc
# Summary of the method: as §1
# [42] = molecular target: Fuc(a1-2)[GalNAc(a1-4)]Gal(b1-4)GlcNAc
# Summary of the method: as §1
# [43] = molecular target: Fuc(a1-2)[GalNAc(b1-3)]Gal
# Summary of the method: as §1
binder,measurement,setting,value
B1,glycan array binding signal (z-score),[1],0.443
same,glycan array binding signal (z-score),Fuc(a1-2)Gal6S(b1-4)Glc,-0.456
same,glycan array binding signal (z-score),[2],0.037
same,glycan array binding signal (z-score),Fuc(a1-2)[Gal(a1-3)]Gal,1.34
same,glycan array binding signal (z-score),[3],0.028
same,glycan array binding signal (z-score),[4],0.312
same,glycan array binding signal (z-score),[5],0.17
same,glycan array binding signal (z-score),[6],-0.173
same,glycan array binding signal (z-score),[7],-0.47
same,glycan array binding signal (z-score),[8],-0.378
same,glycan array binding signal (z-score),[9],-0.387
same,glycan array binding signal (z-score),[10],-0.352
same,glycan array binding signal (z-score),[11],-0.05
same,glycan array binding signal (z-score),[12],-0.424
same,glycan array binding signal (z-score),[13],0.041
same,glycan array binding signal (z-score),[14],0.035
same,glycan array binding signal (z-score),[15],-0.252
same,glycan array binding signal (z-score),[16],-0.277
same,glycan array binding signal (z-score),[17],-0.255
same,glycan array binding signal (z-score),[18],-0.305
same,glycan array binding signal (z-score),[19],-0.086
same,glycan array binding signal (z-score),[20],-0.316
same,glycan array binding signal (z-score),[21],0.747
same,glycan array binding signal (z-score),[22],-0.185
same,glycan array binding signal (z-score),[23],-0.104
same,glycan array binding signal (z-score),[24],-0.264
same,glycan array binding signal (z-score),[25],0.629
same,glycan array binding signal (z-score),[26],-0.142
same,glycan array binding signal (z-score),[27],-0.246
same,glycan array binding signal (z-score),[28],-0.181
same,glycan array binding signal (z-score),[29],-0.246
same,glycan array binding signal (z-score),[30],-0.241
same,glycan array binding signal (z-score),[31],-0.328
same,glycan array binding signal (z-score),[32],-0.268
same,glycan array binding signal (z-score),[33],-0.365
same,glycan array binding signal (z-score),[34],-0.208
same,glycan array binding signal (z-score),[35],0.342
same,glycan array binding signal (z-score),[36],-0.602
same,glycan array binding signal (z-score),[37],-0.499
same,glycan array binding signal (z-score),[38],-0.238
same,glycan array binding signal (z-score),[39],-0.37
same,glycan array binding signal (z-score),[40],0.06
same,glycan array binding signal (z-score),[41],-0.027
same,glycan array binding signal (z-score),[42],-0.218
same,glycan array binding signal (z-score),[43],0.093
